± gives the standard deviation of the averaged measurements. The full ranking holds about 33,000 sequences; the median of “E-score (dimensionless, -0.5 to 0.5)” is about -0.046, and the highest 2% start at about 0.36. The list shows a part of the results.
tested on: T1, SpTbr T-box DNA-binding domain (GST fusion); experiment: PBM E-score of 8-mer (E-score (dimensionless, -0.5 to 0.5)); Tbr is Tbrain of the sea star Patiria miniata (Pm) or the sea urchin Strongylocentrotus purpuratus (Sp); higher = stronger binding preference; most listed sequences are background and not binding sites; details: the construct has about 5 more residues each side
T1 sequence: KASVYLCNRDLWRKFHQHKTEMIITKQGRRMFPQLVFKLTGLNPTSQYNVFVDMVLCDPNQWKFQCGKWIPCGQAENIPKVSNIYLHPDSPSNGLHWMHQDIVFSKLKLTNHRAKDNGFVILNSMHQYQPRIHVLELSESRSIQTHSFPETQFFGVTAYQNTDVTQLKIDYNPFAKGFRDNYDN
Procedure: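 Universal protein-binding microarray (Agilent AMADID 016060, 60-bp probes with a 35-bp variable region) incubated with 200 nM GST-fused Strongylocentrotus purpuratus Tbr T-box DNA-binding domain (residues 362-554) in PBS pH 7.5. Scored for every ungapped 8-mer (given with its reverse complement) as E-score (range -0.5 to 0.5; >0.45 counts as bound) and Z-score of median probe intensity. Two replicate arrays (datasets 1 and 2).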
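Also: protein at 200 nM in PBS on universal double-stranded arrays.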

Row | Sequence | PBM E-score of 8-mer
1 | AGGGTACC | -0.119 ± 0.026
2 | GCGACATA | 0.18 ± 0.031
3 | AATTCACC | -0.0331 ± 0.031
4 | GATATCCC | -0.172 ± 0.075
5 | AAGATGGC | -0.0186 ± 0.037
6 | ATGATCGA | -0.0315 ± 0.09
7 | ACGGATCC | -0.158 ± 0.061
8 | CAATGTGC | 0.224 ± 0.032
9 | GATATGCA | 0.00558 ± 0.032
10 | GACGTTAC | -0.0566 ± 0.094
11 | GTCTGGAA | -0.195 ± 0.017
12 | AAGGAGCG | -0.175 ± 0.012
13 | ATTATGCC | -0.192 ± 0.042
14 | CAGACATG | -0.00281 ± 0.052
15 | AGCTACCC | -0.299 ± 0.043
16 | CGACCGTC | 0.0112 ± 0.079
17 | ACAACCGA | 0.0893 ± 0.019
18 | AATTCACT | -0.0166 ± 0.019
19 | AGCGCGCG | 0.131 ± 0.084
20 | AAACCTCG | 0.0284 ± 0.048
21 | ACAGTCCT | -0.0271 ± 0.062
22 | ATCCTCAC | 0.347 ± 0.013

Row | Sequence | PBM E-score of 8-mer
23 | ATTGAAGA | -0.24 ± 0.0088
24 | AGTGAGAA | 0.422 ± 0.014
25 | GCTCGCTA | 0.015 ± 0.0023
26 | AGTACCAT | -0.0603 ± 0.023
27 | ATAGGAGG | 0.0196 ± 0.0055
28 | TGGAATAA | -0.142 ± 0.015
29 | CGGTATCC | -0.302 ± 0.053
30 | ACCACACT | 0.328 ± 0.0063
31 | TTACCCAA | -0.0514 ± 0.0097
32 | CTGAGGGC | -0.0979 ± 0.0046
33 | ATAAATAT | -0.01 ± 0.032
34 | TAGTGCGA | 0.4025 ± 0.0017
35 | CCCTCGCG | 0.159 ± 0.035
36 | TAGCTTGA | -0.286 ± 0.051
37 | GACGAAGA | -0.023 ± 0.028
38 | ATAATTGA | -0.00127 ± 0.01
39 | CGTGTAAC | 0.134 ± 0.0023
40 | ATCCCTCC | -0.1562 ± 0.00086
41 | TCGCACCA | 0.434 ± 0.023
42 | GAGATTAC | 0.0619 ± 0.027
43 | CGCACGGA | 0.0299 ± 0.029
44 | CGGTCGCC | 0.0767 ± 0.062

Row | Sequence | PBM E-score of 8-mer
45 | CTACACCC | 0.179 ± 0.12
46 | GCGGCCAC | -0.0648 ± 0.063
47 | GAACCGCC | -0.0733 ± 0.0011
48 | TCCCCGGA | -0.159 ± 0.0096
49 | CTAGTTTC | -0.105 ± 0.053
50 | CGTTCGCC | 0.11 ± 0.024
51 | CAGGGGAA | -0.152 ± 0.012
52 | CGTAAGGC | -0.169 ± 0.0086
53 | ACTTGTAG | 0.0359 ± 0.044
54 | GACTTAGC | 0.00445 ± 0.0068
55 | ACCTCGGC | 0.146 ± 0.0072
56 | ACAGTGCC | -0.0283 ± 0.038
57 | TCCTCGAA | -0.0695 ± 0.038
58 | GAAAATTC | -0.0558 ± 0.073
59 | ATCCGCAC | 0.319 ± 0.0057
60 | CACAATCA | 0.178 ± 0.038
61 | GGATACAC | -0.162 ± 0.016
62 | AGACGCAT | -0.152 ± 0.021
63 | CCATAAAG | -0.147 ± 0.033
64 | ATCTTGCC | -0.0917 ± 0.02
65 | ACTGACTG | 0.101 ± 0.027
66 | TAATACTA | -0.225 ± 0.099

Row | Sequence | PBM E-score of 8-mer
67 | AACGGACA | 0.0523 ± 0.035
68 | CCTAATGC | 0.0305 ± 0.048
69 | ACGGAGCC | -0.0943 ± 0.051
70 | AGGCGTAC | -0.116 ± 0.022
71 | CTGATAAC | 0.0585 ± 0.034
72 | ATCTAAAA | -0.224 ± 0.078
73 | AATTTTTC | 0.00787 ± 0.08
74 | CGCACTCC | 0.241 ± 0.039
75 | ACCCGAAT | 0.0131 ± 0.0018
76 | AGTGCAGA | 0.148 ± 0.042
77 | AACAAGTT | 0.133 ± 0.07
78 | ACTCCTCA | 0.0396 ± 0.023
79 | AGGTCGTA | -0.0447 ± 0.037
80 | AAAACCGC | 0.00843 ± 0.043
81 | AGTACAGC | -0.177 ± 0.018
82 | AAACTCCA | -0.00111 ± 0.082
83 | ATACAATC | -0.175 ± 0.038
84 | ACGACTAG | 0.089 ± 0.07
85 | ACGGGGCG | 0.0842 ± 0.016
86 | CACGACGC | 0.0258 ± 0.17

From the supplement of paper PMC4166925
